Experimental data from PubChem BioAssay (NCATS).
This list was built around the results that the source calls inconclusive (neither active nor inactive); the mix of calls is not that of the screen. Potencies of inconclusive entries are left out as doubtful fits. The source made the active and inactive calls. Calls come from the whole dose curve; as a rule, active = well fitted inhibition curve with a large enough effect; inconclusive = small, poorly fitted or top-dose-only effect; inactive = no such curve, though single readings can be large or run the other way.

Target: Cytochrome P450 3A4 (Homo sapiens) (UniProt P08684)
Assay: qHTS Assay for Inhibitors and Substrates of Cytochrome P450 3A4 (AID 884); note: nearly all actives have a fitted effect of over 50% in size
Details: recombinant CYP3A4, Luciferin-PPXE luminescence; series mostly up to 57.1 µM
In short: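 20 nM human CYP3A4 with 25 uM Luciferin-PPXE (at KM) in 200 mM KPO4, preincubated 10 min with compound; NADPH regeneration started a 60 min RT reaction. Luciferin detected by luminescence, normalized to 57 uM ketoconazole as full inhibition.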
Potency is the fitted concentration of half-maximal effect; tags give direction and shape of the fitted curve.

UniProt P08684, sequence (P08684 whole entry, looked up): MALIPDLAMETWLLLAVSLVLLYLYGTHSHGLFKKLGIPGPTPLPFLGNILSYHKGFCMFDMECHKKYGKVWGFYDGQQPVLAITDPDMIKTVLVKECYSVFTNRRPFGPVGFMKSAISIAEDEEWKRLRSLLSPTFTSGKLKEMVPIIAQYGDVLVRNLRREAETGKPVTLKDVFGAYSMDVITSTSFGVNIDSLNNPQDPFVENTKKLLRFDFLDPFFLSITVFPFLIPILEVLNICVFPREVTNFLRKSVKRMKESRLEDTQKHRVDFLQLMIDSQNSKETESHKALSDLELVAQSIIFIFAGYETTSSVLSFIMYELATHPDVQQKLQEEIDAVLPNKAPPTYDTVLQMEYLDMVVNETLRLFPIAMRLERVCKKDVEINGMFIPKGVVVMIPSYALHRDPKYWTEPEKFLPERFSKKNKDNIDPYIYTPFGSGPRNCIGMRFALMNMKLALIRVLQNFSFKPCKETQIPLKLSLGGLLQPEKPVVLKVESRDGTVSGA

| SMILES | Potency |
| --- | --- |
| CCNC(C)(C)[C@@H](SS)c1ccc(Br)cc1 | inconclusive [inhibitor, partial curve] |
| CC[C@@](O)(C(=O)O)c1cc2n(c(=O)c1CO)Cc1cc3ccccc3nc1-2 | inconclusive [inhibitor, partial curve] |
| COC[C@H]1OC(=O)c2coc3c2[C@@]1(C)C1=C(C3=O)[C@H]2CCC(=O)[C@@]2(C)C[C@H]1OC(C)=O | inconclusive [inhibitor, full curve] |

Target: Cytochrome P450 2D6 (Homo sapiens) (UniProt P10635)
Assay: qHTS Assay for Inhibitors and Substrates of Cytochrome P450 2D6 (AID 891);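 note: luciferin methyl ether substrate demethylated by CYP2D6 with NADPH regeneration; nearly all actives have a fitted effect of over 60% in size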; for activity change, negative = inhibition: top concentration of the series differs between compounds; % is set by controls: 0 for no effect and ±100 for the full control effect
Details: recombinant CYP2D6, luciferin-ME EGE luminescence; series mostly up to 57.1 µM
In short: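 Human CYP2D6 (5 nM) with 30 uM Luciferin-ME EGE (at Km) in 100 mM KPO4, compound preincubated 10 min, then NADPH regeneration system for 60 min at room temperature. Luciferin read by luminescence; normalized to 1.43 uM quinidine.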

UniProt P10635, sequence (P10635 whole entry, looked up): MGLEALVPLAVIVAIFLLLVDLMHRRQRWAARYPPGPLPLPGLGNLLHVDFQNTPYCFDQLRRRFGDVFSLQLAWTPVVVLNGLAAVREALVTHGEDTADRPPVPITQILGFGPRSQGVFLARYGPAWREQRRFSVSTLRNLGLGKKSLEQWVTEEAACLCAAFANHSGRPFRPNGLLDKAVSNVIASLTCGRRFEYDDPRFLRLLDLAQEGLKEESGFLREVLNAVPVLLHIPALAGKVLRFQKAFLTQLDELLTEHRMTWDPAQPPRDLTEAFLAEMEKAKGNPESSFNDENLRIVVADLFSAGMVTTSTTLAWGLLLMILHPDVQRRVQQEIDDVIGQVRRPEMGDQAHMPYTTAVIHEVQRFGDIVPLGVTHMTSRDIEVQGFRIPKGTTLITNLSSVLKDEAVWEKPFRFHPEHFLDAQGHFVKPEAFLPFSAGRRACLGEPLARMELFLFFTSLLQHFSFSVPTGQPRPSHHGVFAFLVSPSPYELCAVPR

| SMILES | Potency | activity change, negative = inhibition |
| --- | --- | --- |
| N=C(N)SCc1ccc(Cl)c2ccccc12 (tested in a mixture with another compound) | inconclusive [inhibitor, partial curve] |  |
| COc1ccc(CNC(=O)/C=C\c2ccc3[nH]cc(CCN(C)C)c3c2)cc1 | inactive |  |
| COc1cc2cc(c1Cl)N(C)C(=O)C[C@H](OC(=O)C(C)C)[C@]1(C)O[C@@H]1[C@@H](C)[C@H]1C[C@](O)(NC(=O)O1)[C@@H](OC)/C=C\C=C(\C)C2 |  | inactive: 21.6% [at 11.4 µM] |
| CCN1C[C@@]2(COC)[C@H](O)C[C@H](OC)[C@@]34[C@@H]5C[C@@]6(O)[C@H](OC(=O)c7ccccc7)[C@H]5[C@@](OC(C)=O)([C@H]([C@@H](OC)[C@H]23)[C@H]14)[C@H](O)[C@@H]6OC | inactive |  |
| COc1cc2c(cc1OC)-c1c(OC)c(OC)c(CO)c3c1[C@H](C2)N(C)CC3 | inactive |  |
